# Test results reported in PubChem BioAssay AID1345083 (National Center for Advancing Translational Sciences (NCATS), 2018).
# Where “and” joins values, the source holds several entries; their conditions need not be identical. Equal entries are not always repeated. Screen size: about 94,000 compounds; about 6,200 (6.6%) were called active. Inconclusive means that the source gave no clear call. Such entries were picked first, then a sample of the others. Calls come from the whole dose curve; as a rule, active = well fitted inhibition curve with a large enough effect; inconclusive = small, poorly fitted or top-dose-only effect; inactive = flat fitted curve, though single readings scatter. Where the call is inconclusive, the potency comes from a doubtful curve fit.
# Test: Cytotoxic Profiling in HEK 293 Cell Line of Diverse Libraries Using Quantitative High-Throughput Screening; note: nearly all actives have a fitted effect of over 60% in size
# Conditions: HEK 293 viability, ATP luminescence (CellTiter-Glo), 48-72 h; series mostly up to 115 µM
# How it was run: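 Cytotoxicity was scored by loss of ATP-coupled luminescence (CellTiter-Glo) in HEK 293 cells. Compound treatment ran 48 or 72 hr at 37 degree Celsius, 5% CO2, 95% humidity.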
# Potency is the fitted concentration of half-maximal effect; tags give direction and shape of the fitted curve.
row,Compound,Potency
1,COc1ccc(C(=O)N2CCn3c(nnc3-c3cccnc3)C2)cc1,inactive
2,COc1ccccc1CNC(=O)C1CCN(c2cnc3nccnc3c2)CC1,inactive
3,O=C(NCc1cccs1)c1nc(-c2cccc(C(F)(F)F)c2)c2ccccn12,"inconclusive: 89.1 µM [inhibitor, single point]"
4,COc1cncc(Nc2cnc3ccc(-c4ccccc4)nn23)c1,inactive
5,Cc1nn(-c2ccccc2)c2c1C(C(C)C)N(C1CCN(C(=O)c3ccc(Cl)nc3)CC1)C2=O (stereo not given),inactive
6,Cc1ccc(Nc2ccnc(N3CCCC(C(=O)N4CCN(Cc5ccccc5)CC4)C3)n2)cc1 (stereo not given),active: 12.6 µM
7,COc1ccc(N2CCN(C(=O)CCc3conc3-c3ccc(F)cc3)CC2)cc1,"inconclusive: 89.1 µM [inhibitor, single point]"
8,O=C(CCCc1ccccc1)N1CCC(Cc2nc(-c3ccc(F)cc3)no2)CC1,"inconclusive: 50.1 µM [inhibitor, partial curve, poor fit]"
9,Cc1cc(Cl)ccc1S(=O)(=O)N1CCc2nn(C)c(=O)n2CC1,inactive
10,COc1ccc(-c2cc(C(=O)NCC3CC3)c3cnn(C)c3n2)cc1,"inconclusive: 22.4 µM [inhibitor, full curve]"
11,COc1ccccc1-c1ccc(C(=O)N2CCC(NC(=O)c3ccccc3Cl)CC2)cc1,"inconclusive: 79.4 µM [inhibitor, partial curve] and inconclusive: 89.1 µM [inhibitor, single point]"
12,COc1cccc(C(=O)N2CCCC(C(=O)N3CCC(c4ccccc4)CC3)C2)c1 (stereo not given),"inconclusive: 89.1 µM [inhibitor, single point]"
13,CNC(=O)c1cc(C2CC2)nc2c1c(C1CCN(C(=O)COC)C1)nn2C (stereo not given),inactive
14,Cc1cnc(-c2ccccc2)n1CC1CCN(C(=O)C(C)c2ccccc2)CC1 (stereo not given),"inconclusive: 31.6 µM [inhibitor, partial curve, poor fit]"
15,O=C1NCCCCCN(Cc2cccnc2)[C@@H]2CN(Cc3cccc(F)c3)CC[C@@H]12,"inconclusive: 63.1 µM [inhibitor, partial curve, poor fit]"
16,COC1C(=O)N(c2cccc(F)c2)C12CCN(C(=O)C1CCCC1)CC2 (stereo not given),"inconclusive: 8.91 µM [inhibitor, full curve, poor fit]"
17,COc1ccc(OCc2nc(C3CN(C(=O)c4ccc5nc[nH]c5c4)C3)no2)cc1,"inconclusive: 50.1 µM [inhibitor, partial curve, poor fit]"
18,COc1ccc(CN2CCCC3(Cc4ccccc4CN(C(C)=O)C3)C2)cc1 (stereo not given),"inconclusive: 89.1 µM [inhibitor, single point]"
19,Cc1ccc2nc(C(=O)N(C)Cc3cn[nH]c3-c3ccc(F)cc3)cn2c1,inactive
20,O=C(Cc1ccc2c(c1)OCO2)N1CCOCC2(CN(Cc3ccccc3)C2)C1,"inconclusive: 126 µM [inhibitor, partial curve, poor fit]"
21,CC(C)CNc1ccc2nnc(-c3ccc(F)cn3)n2n1,"inconclusive: 141 µM [inhibitor, partial curve, poor fit]"
22,COc1cccc(CC(=O)NCc2nnc3cc(-c4nc(C5CC5)no4)ccn23)c1,inactive

row,Compound,Potency
1,CC(=O)N1CCCN(Cc2ccc3c(c2)OCO3)c2ccccc21,"inconclusive: 50.1 µM [inhibitor, partial curve, poor fit]"
2,COc1ccc(Nc2ncc(-c3cccnc3)c3c2OCC3)cc1,"inconclusive: 126 µM [inhibitor, single point]"
3,Cc1cc(C(=O)N2CCC(Cc3ccc(C(N)=O)cc3)CC2)n(C)n1,"inconclusive: 79.4 µM [inhibitor, partial curve, poor fit]"
4,O=C(Nc1ccc(Oc2ccccc2)cc1)N[C@H]1CO[C@H]2[C@@H]1OC[C@@H]2n1nnnc1Oc1ccc(-n2cncn2)cc1,active: 25.1 µM
5,O=c1[nH]c(C2CCCN(Cc3ccccn3)C2)nn1-c1ccc(Cl)cc1 (stereo not given),"inconclusive: 8.91 µM [inhibitor, full curve, poor fit]"
6,O=C(C1CCCC1)N1CCc2nc(-c3ccccc3)nc(-c3ccc(Cl)cc3)c2C1,active: 35.5 µM
7,c1ccc(-n2cc(CN3CCCCC3c3ccccn3)nn2)cc1 (stereo not given),"inconclusive: 89.1 µM [inhibitor, single point]"
8,CC(C)C(=O)N1CCC2(CC1)OC(=O)N(Cc1ccccc1C#N)C2(C)c1ccccc1 (stereo not given),inactive
9,COc1ccc(C(=O)N2CCC(Oc3ccc(-c4noc(-c5ccccc5)n4)cc3)C2)cn1 (stereo not given),inactive
10,O=C(Nc1cccc(C(F)(F)F)c1)O[C@@H]1CO[C@H]2[C@@H]1OC[C@@H]2NC(=O)C1CCC1,"inconclusive: 56.2 µM [inhibitor, partial curve, poor fit]"
11,Cc1ncsc1C1N(C2CCN(Cc3cn(C)c4ccccc34)CC2)C(=O)C12CCCC2 (stereo not given),active: 79.4 µM
12,Cc1cc(C)cc(C(=O)NC(Cc2ccccc2)C(=O)N2CCN(c3ccccn3)CC2)c1 (stereo not given),"inconclusive: 56.2 µM [inhibitor, partial curve, poor fit]"
13,COc1cc(-c2ccnc3nc(CCc4ccccc4)nn23)cc(OC)c1OC,inactive
14,CCc1nc2c(c(-c3ccc(Cl)cc3)n1)CCN(Cc1ccc(C#N)cc1)CC2,active: 39.8 µM
15,COc1ccc(F)cc1-c1ccc(CN2CCC(N[S+](=O)([O-])c3ccccc3)C2)cc1 (stereo not given),active: 44.7 µM
16,CNC(=O)c1cc(C2CC2)nc2onc(C3CCN(C(=O)c4cccc(OC)c4)C3)c12 (stereo not given),inactive
17,O=C(c1ccc2cc[nH]c2c1)N1CCC2(CC1)CC(Cc1cccc(F)c1)CCO2 (stereo not given),"inconclusive: 44.7 µM [inhibitor, partial curve, poor fit]"
18,COc1ccc(Cl)cc1-c1ccc2c(c1)C(=O)N1CCN(C(=O)c3ccco3)C[C@H]1C(=O)N2,"inconclusive: 44.7 µM [inhibitor, partial curve, poor fit]"
19,COc1cc(F)ccc1-c1ccnc2nc(Cc3ccc(F)cc3)nn12,"inconclusive: 44.7 µM [inhibitor, partial curve, poor fit]"
20,O=C(Nc1cccc(Cl)c1)c1nc2cccnc2n(Cc2ccccc2)c1=O,"inconclusive: 31.6 µM [inhibitor, full curve]"
21,Cc1ccc(-c2c(C(=O)NC3CCCCC3)nc3sccn23)cc1,"inconclusive: 126 µM [inhibitor, single point]"
22,CCn1cc(S(=O)(=O)N2CCC3(CC2)CC(OCC2CC2)CCO3)cn1 (stereo not given),inactive

row,Compound,Potency
1,COCC(=O)N1CCN(C(=O)c2nc3cccnc3n(-c3ccccc3OC)c2=O)CC1,inactive
2,Cc1ccc(-n2nc3n(c2=O)CCN(C(=O)Cc2ccc(F)cc2)C3)cc1,"inconclusive: 50.1 µM [inhibitor, partial curve]"
3,O=C(NC1CCN(c2ccc3nnc(-c4ccccc4)n3n2)CC1)C1CC1,inactive
4,COc1cccc(CNC(=O)Cn2ccn3nc(-c4ccccc4)c(CO)c3c2=O)c1OC,"inconclusive: 50.1 µM [inhibitor, partial curve, poor fit]"
5,COc1cccc(-c2ccc(C(=O)N3CCC(C(=O)N4CCC(C#N)CC4)CC3)cc2)c1,"inconclusive: 56.2 µM [inhibitor, partial curve, poor fit]"
6,Cc1cc(Cn2cc3c4c(cccc42)[C@H](CC(C)C)N[C@H](C(=O)N2CCCCCC2)C3)no1,"inconclusive: 39.8 µM [inhibitor, full curve]"
7,Cc1nnsc1C(=O)N[C@H]1CCN(C(=O)COCC(=O)O)[C@H](C(=O)N[C@H](CC(C)C)C(N)=O)C1,inactive
8,O=C(CCn1nnnc1CN1CCOCC1)N1CCN(c2nc3ccccc3s2)CC1,"inconclusive: 79.4 µM [inhibitor, single point]"
9,CN1C(=O)c2cncnc2OCC1CNC(=O)Cc1cccc(Cl)c1 (stereo not given),inactive
10,COCc1noc([C@@H]2CN(C(=O)CCC(C)C)C[C@H]2CO)n1,inactive
11,COc1ccc(OCC2(C)COc3ccc(C(=O)NC4CCC(O)CC4)cc3N2)cc1 (stereo not given),"inconclusive: 35.5 µM [inhibitor, full curve]"
12,COCC(=O)N(C1CCOCC1)C1CCN(C(=O)Cc2cccnc2)CC1,"inconclusive: 100 µM [inhibitor, single point]"
13,O=C1[C@H]2CN(Cc3cc(F)ccc3F)C[C@H]2C(=O)N1Cc1ccc2c(c1)OCO2,"inconclusive: 79.4 µM [inhibitor, partial curve, poor fit]"
14,Cc1nn(-c2ccc(F)cc2)c(C)c1CNC(=O)C1NCCc2[nH]cnc21 (stereo not given),"inconclusive: 79.4 µM [inhibitor, single point]"
15,Cc1cc2cc(-c3c(C)noc3C)nc(NC3CC3)c2o1,"inconclusive: 112 µM [inhibitor, partial curve]"
16,CC(C)NC(=O)N1CCCC(c2noc(COc3ccccc3)n2)C1 (stereo not given),inactive
17,CCC(C)NC(=O)C1CCN(C(=O)c2ccc(-c3ccccc3OC)cc2)CC1 (stereo not given),"inconclusive: 63.1 µM [inhibitor, partial curve, poor fit]"
18,COCc1ncc(C)n1CCNC(=O)c1cc(-c2ccc(C)c(C)c2)n[nH]1,"inconclusive: 89.1 µM [inhibitor, single point]"
19,CCc1cc(=O)n(Cc2cccnc2)c(N2CCOCC2)n1,"inconclusive: 70.8 µM [inhibitor, single point]"
20,Cc1cn(CC(=O)NC2CCOC3(CCOCC3)C2)c(=O)[nH]c1=O (stereo not given),inactive
21,COc1ccc(CC(=O)NC2CCN(c3cc(C)cc(C)c3)C2=O)c(Cl)c1 (stereo not given),"inconclusive: 100 µM [inhibitor, single point]"
